{
  "source": "PubChem BioAssay AID1347417",
  "about": "(National Center for Advancing Translational Sciences (NCATS), 2020)",
  "note": "Among all 120,000 compounds or so, about 5,300 (4.4%) were called active. The inconclusive results got no clear call from the source; some entries with a clear call stand among them for comparison. The call rests on the fitted dose curve; in most records, active means well fitted inhibition curve with a large enough effect; inconclusive means small, poorly fitted or top-dose-only effect; inactive means no such curve, though single readings can be large or run the other way. A potency beside an inconclusive call is a rough fit, not a confirmed value. Potency means the concentration at half of the fitted maximal effect; tags describe the fitted curve by direction and shape.",
  "data": [
    {"assay": "qHTS Primary assay for Inhibitors of Plasmodium falciparum Dd2 growth in vitro; further: nearly all actives have a fitted effect of over 65% in size", "conditions": "P. falciparum Dd2 growth, SYBR Green, 72 h; series mostly up to 28.9 µM", "in_short": "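Infected erythrocytes (Dd2, 0.3% parasitemia, 2.5% hematocrit final) are added to compound in RPMI-1640/Albumax II medium, grown 72 h at 37C in low oxygen, then lysed with saponin/Triton-X containing SYBR Green and read by fluorescence.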", "values": [
      {"smiles": "CCn1ccc(C(=O)N2C[C@@H](Oc3cccnc3)C[C@@H]2C(=O)NCCOC)n1", "Potency": "inactive"},
      {"smiles": "CCCCn1cc(S(=O)(=O)c2ccc(CC)cc2)c(=O)c2cc(F)c(N3CCCC(C)C3)cc21", "note": "(stereo unspecified)", "Potency": "inconclusive: 11.2 µM [inhibitor, partial curve]"},
      {"smiles": "COc1ccccc1CCNC(=O)c1ccc(NC(=O)N2CC(C)Sc3ccccc32)cc1", "note": "(stereo unspecified)", "Potency": "inconclusive: 17.8 µM [inhibitor, single point]"},
      {"smiles": "Cc1ccc(C(=O)CSc2nc3cc(C(=O)NC4CCCC4)ccc3c(=O)n2CC2CCCO2)cc1", "note": "(stereo unspecified)", "Potency": "inactive"},
      {"smiles": "O=C(c1ccc2c(c1)OCCO2)N1CCc2[nH]nc(-c3ccccc3F)c2C1", "Potency": "inactive"},
      {"smiles": "Cc1nn2c(c1-c1ccccc1[S+](C)(=O)[O-])N(Cc1ccc3[nH]ccc3c1)CCC2", "Potency": "inactive"},
      {"smiles": "Cc1[nH]c2c(c1C(=O)N1CCCC(CCc3ccc(F)cc3)C1)C(=O)CCC2", "note": "(stereo unspecified)", "Potency": "inactive"},
      {"smiles": "CN1CCCCC(CC(=O)NCc2ccc(Cl)cc2)C1=O", "note": "(stereo unspecified)", "Potency": "inactive"},
      {"smiles": "CC(=O)Nc1ccc(-c2ccc(=O)n3c2[C@@H]2C[C@@H](CN(C(=O)c4cccs4)C2)C3)cc1", "Potency": "inactive"},
      {"smiles": "CC(C)c1ccc(CC(=O)N2CCCc3ncc(C(=O)NCCc4c[nH]c5ccccc45)cc32)cc1", "Potency": "inconclusive: 1.41 µM [inhibitor, full curve]"},
      {"smiles": "O=C(c1ccccc1)N1CCC(n2cc(-c3nc(-c4ccccc4)no3)nn2)CC1", "Potency": "inconclusive: 1.58 µM [inhibitor, single point]"},
      {"smiles": "COc1ccc(-c2cc3c(ccn3C)c(C(=O)NCc3cccnc3)n2)cc1", "Potency": "inconclusive: 12.6 µM [inhibitor, single point]"},
      {"smiles": "CN1C[C@@H](NC(=O)COc2ccccc2)C[C@H]1c1nc(-c2ccncc2)no1", "Potency": "inconclusive: 2.82 µM [inhibitor, partial curve, poor fit]"},
      {"smiles": "COc1cccc(OC)c1CN1C[C@@H](CO)[C@H](c2nc(C)no2)C1", "Potency": "inconclusive: 3.55 µM [inhibitor, partial curve, poor fit]"},
      {"smiles": "Clc1cccc(CN2CC[C@H](c3nc4ccccc4o3)C2)c1", "Potency": "inconclusive: 5.62 µM [inhibitor, single point]"},
      {"smiles": "O=C1NC2(CCN([S+](=O)([O-])c3cccc(C(F)(F)F)c3)C2)N=C1c1ccncc1", "note": "(stereo unspecified)", "Potency": "inactive"},
      {"smiles": "Cc1nc(N2CCN(C(=O)c3ccc(C(C)(C)C)cc3)CC2)cc(C(F)(F)F)n1", "Potency": "inconclusive: 3.98 µM [inhibitor, partial curve, poor fit]"},
      {"smiles": "CCNC(=O)CC1COc2ccc(C(=O)NCCOC)cc2N1C", "note": "(stereo unspecified)", "Potency": "inactive"},
      {"smiles": "O=C(c1cccs1)N1CCC2(CC1)CC(N(Cc1ccc(F)cc1)C1CC1)CCO2", "note": "(stereo unspecified)", "Potency": "inconclusive: 2 µM [inhibitor, partial curve, poor fit]"},
      {"smiles": "COCC(=O)Nc1ccc(-n2ccnc2-c2ccc(O)c(OC)c2)cc1C", "Potency": "inconclusive: 17.8 µM [inhibitor, single point]"},
      {"smiles": "Cc1cc(C)c(Cn2c3ccccc3c3cnn(CC(=O)NCCc4ccccc4)c(=O)c32)c(C)c1", "Potency": "inconclusive: 5.01 µM [inhibitor, partial curve]"},
      {"smiles": "CCc1cccc(C)c1NS(=O)(=O)c1c(C(=O)N2CCCCCC2)c(C)n(C)c1C", "Potency": "inconclusive: 11.2 µM [inhibitor, single point]"},
      {"smiles": "Cc1ccc(Cl)cc1N1CCN(C(=O)CN2C(=O)COc3ccc(S(=O)(=O)N4CCOCC4)cc32)CC1", "Potency": "inconclusive: 17.8 µM [inhibitor, single point]"},
      {"smiles": "O=C(NCc1ccc(F)cc1)c1ccc(CSc2nc3ccncc3n2Cc2ccc(F)cc2)cc1", "Potency": "active: 11.2 µM"},
      {"smiles": "CCOC(=O)c1c(Nc2cccc(O)c2)nnc(-c2ccccc2)c1-c1ccccc1", "Potency": "inconclusive: 12.6 µM [inhibitor, single point]"},
      {"smiles": "COc1cc2c(cc1OC1CCCC1)NC(=O)C21CCN(Cc2ccncc2)CC1", "Potency": "inactive"},
      {"smiles": "Cc1ccc(C(=O)c2sc(Nc3ccccc3F)c(S(=O)(=O)c3ccccc3)c2N)c(C)c1", "Potency": "inconclusive: 3.98 µM [inhibitor, single point]"},
      {"smiles": "O=C(NCc1ccc2c(c1)OCO2)c1ccc2c(c1)N(Cc1cccc(Cl)c1)C(=O)c1ccccc1S2", "Potency": "active: 10 µM"},
      {"smiles": "COCc1cc(=O)n(CC(=O)Nc2cc(C)ccc2OC)c(N2CCOCC2)n1", "Potency": "inconclusive: 17.8 µM [inhibitor, single point]"},
      {"smiles": "COc1ccccc1CN1CC[C@@H](CO)N(C)c2nc(C)ccc2C1", "Potency": "inconclusive: 0.316 µM [inhibitor, partial curve, poor fit]"},
      {"smiles": "Cc1cc(C)c(S(=O)(=O)Nc2cc(-c3cn4ccccc4n3)ccc2C)cc1C", "Potency": "inconclusive: 0.0112 µM [inhibitor, full curve, poor fit]"},
      {"smiles": "CCN1CCN(C(=O)c2ccc3c(c2)N(Cc2ccc(Cl)cc2)C(=O)c2ccccc2S3(=O)=O)CC1", "Potency": "inconclusive: 3.98 µM [inhibitor, single point]"},
      {"smiles": "CCn1ccc2sc(C)c(C(=O)N3CCOCC3)c2c1=O", "Potency": "inactive"},
      {"smiles": "COc1ccc(C2(C(=O)N3CCCN(c4cc(-c5ccc(C)c(C)c5)[nH]n4)CC3)CC2)cc1", "Potency": "inactive"},
      {"smiles": "COc1ccc(CCNC(=O)c2ccc3c(c2)CCN3S(=O)(=O)c2ccc(Cl)cc2)cc1", "Potency": "inconclusive: 12.6 µM [inhibitor, single point]"},
      {"smiles": "O=C(CCC[C@@H]1[C@H]2CCCN3CCC[C@@H](CN1C(=O)c1cc(F)cc(F)c1)[C@@H]23)NCc1ccccc1", "Potency": "inactive"},
      {"smiles": "CN1CCc2c([nH]c3ccccc23)C12CCN(C(=O)c1ccsc1)CC2", "Potency": "inconclusive: 7.94 µM [inhibitor, partial curve, poor fit]"},
      {"smiles": "Cc1noc(C)c1[S+](=O)([O-])N1CCC(c2nn(C)c(=O)[nH]2)CC1", "Potency": "inactive"},
      {"smiles": "COc1ccc(-c2cccc(NS(=O)(=O)c3cc(C)c(OC)c(C)c3C)c2)nn1", "Potency": "inconclusive: 15.8 µM [inhibitor, partial curve, poor fit]"},
      {"smiles": "COc1cccc(C(=O)NC2CCN(c3cnn(C)c(=O)c3)CC2)c1", "Potency": "inactive"},
      {"smiles": "CCOc1ccccc1C(=O)N1CC(=O)Nc2ccc(Cl)cc2C1c1ccccc1", "note": "(stereo unspecified)", "Potency": "inconclusive: 0.708 µM [inhibitor, full curve, poor fit]"}
    ]}
  ]
}
